Molecules are shown by their SMILES. The source holds more than one record for some entries. The other results are left out here. An entry can have further records. Values that stand side by side are repeated measurements in other runs, samples, wells, individuals or studies. Marks in square brackets tell the records apart. A, B and so on number the origins entry by entry.

In this assay the target is intestinal alkaline phosphatase (Mus musculus). Put plainly: mouse IAP inhibition by analogs – biochemical, luminescence, set 2, SAR follow-up (AID 588647). The conditions noted are these: purified mouse IAP, luminescent substrate read-out.
For orientation: IC50 means the concentration that gives 50% inhibition. Turning to `COc1ccc(CNC(=O)CCCNS(=O)(=O)c2ccc3[nH]c(=O)oc3c2)c(OC)c1`, the IC50 was 3.6 µM [sample A] and 37 µM [sample B]. Under `O=C(CCNS(=O)(=O)c1ccc2[nH]c(=O)oc2c1)NCc1ccc2c(c1)OCO2` stands 11 µM [sample A] and 2.6 µM [sample B] and 44 µM [sample C]; under `O=C(CCNS(=O)(=O)c1ccc2[nH]c(=O)oc2c1)NCCc1ccc2c(c1)OCO2`, 5 µM [sample A] and 52 µM [sample B] and 19 µM [sample C].

These data come from PubChem BioAssay AID588647 (Sanford-Burnham Center for Chemical Genomics, 2011).
